Values marked as one replicate rest on one cluster of the flow cell; about a third of the high ones do not repeat.
Tested on: ATP
Assay: switch fluorescence ratio, 500 uM ATP over buffer (Cy3 cluster intensity, sum of 5 cycles each) (fold (ratio)); higher = stronger signal-on switching upon ATP binding; sequences stand for … in TCGTCGGCAGCGTCAGATGTGTATAAGAGACAGTTTTTTTTTTTTTTTTTTTTTTTTT…TC
Details: aptamer strand: ATP DNA aptamer (quencher-CACCTGGGGGAGTATTGCGGAGGAAGG + anchor), 100 nM annealed; ATP concentration: 500 uM; one replicate
Outline: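 The fluorescence ratio divides summed target-cycle Cy3 intensity by summed buffer-cycle Cy3 intensity for each cluster and is averaged per switch-domain sequence. Cy3-labelled switching-strand clusters on a modified Illumina MiSeq flow-cell were annealed to 100 nM quencher-labelled ATP aptamer, then imaged in selection buffer and again after 15 min with 500 uM ATP at 22 °C. Five such cycles were run, with NaOH stripping and re-annealing between them, and clusters outside 100-1000 RFU were excluded.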
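Further: ATP exposure 15 min at 22 °C before imaging.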

Row | Sequence | switch fluorescence ratio
1 | GGTCCCGTGT | 1.01
2 | GGTCCCTTAA | 0.993
3 | GGTCCCTTTG | 0.996
4 | GGTCCGGCTA | 0.984
5 | GGTCCGTGTA | 1
6 | GGTCCTCCAA | 0.99
7 | GGTCCTCGTA | 0.946
8 | GGTCCTTCCA | 1.01
9 | GGTCCTTTCG | 1.02
10 | GGTCGAGAGT | 0.98
11 | GGTCGAGTAC | 1.05
12 | GGTCGATATA | 1
13 | GGTCGCGCCC | 1
14 | GGTCGGAATT | 0.977
15 | GGTCGGCCTA | 1.1
16 | GGTCGGCT | 0.985
17 | GGTCGGGTGG | 0.911
18 | GGTCGTTATG | 0.997
19 | GGTCGTTGCA | 1.06
20 | GGTCTAGGCC | 0.969
21 | GGTCTCAAAC | 1.05
22 | GGTCTTTCAC | 1.03
23 | GGTCTTTCTT | 0.987
24 | GGTCTTTGAC | 0.939
25 | GGTGATAACC | 0.95
26 | GGTGATACTG | 1.04

Row | Sequence | switch fluorescence ratio
27 | GGTGATTTAG | 1.2
28 | GGTGCAAGGC | 1.34
29 | GGTGCAATCG | 1.09
30 | GGTGCAGCCT | 0.997
31 | GGTGCCACTA | 0.984
32 | GGTGCCGACG | 1.02
33 | GGTGCCGTAA | 1.03
34 | GGTGCTGCCA | 0.973
35 | GGTGCTTGGA | 0.997
36 | GGTGGAGTT | 1.06
37 | GGTGGCCCGC | 1.03
38 | GGTGGGGACT | 1.02
39 | GGTGGGGCC | 1.02
40 | GGTGGGGGAA | 0.997
41 | GGTGGTGTCA | 1.01
42 | GGTGTATGGC | 1.01
43 | GGTGTCATCT | 0.996
44 | GGTGTCGCGG | 0.996
45 | GGTGTCTGG | 1.02
46 | GGTGTGATGA | 0.994
47 | GGTGTGGCAC | 1.04
48 | GGTGTTACCT | 1.05
49 | GGTGTTATAC | 1.04
50 | GGTGTTTTCT | 1.01
51 | GGTTAAAAAT | 1.11
52 | GGTTAACGGC | 0.98

Row | Sequence | switch fluorescence ratio
53 | GGTTAAGACT | 1.02
54 | GGTTAATAGC | 0.968
55 | GGTTACAATG | 1.02
56 | GGTTACCG | 1.01
57 | GGTTACGGTC | 1.08
58 | GGTTACTACC | 1.03
59 | GGTTACTGG | 1.06
60 | GGTTACTTA | 1.04
61 | GGTTAGAAAC | 0.992
62 | GGTTAGACTG | 1.08
63 | GGTTAGGTAG | 0.963
64 | GGTTAGTCAG | 0.978
65 | GGTTAGTGGA | 0.96
66 | GGTTATCATC | 0.998
67 | GGTTATTGTT | 0.982
68 | GGTTATTTTC | 1.03
69 | GGTTCCACGG | 1
70 | GGTTCGCCCG | 1.03
71 | GGTTCTAAGC | 1.05
72 | GGTTCTGGGA | 1.03
73 | GGTTCTTGAT | 1.05
74 | GGTTGACAGG | 1.01
75 | GGTTGATAGC | 1.01
76 | GGTTGATAGG | 1
77 | GGTTGCGGTC | 0.999
78 | GGTTGGAAGC | 0.966

Row | Sequence | switch fluorescence ratio
79 | GGTTGGAGAA | 0.965
80 | GGTTGGAGAC | 0.998
81 | GGTTGGAGTA | 1.21
82 | GGTTGGAGTC | 0.993
83 | GGTTGTCCGG | 1.01
84 | GGTTTAAAAG | 0.974
85 | GGTTTAATGA | 0.95
86 | GGTTTACCT | 0.992
87 | GGTTTAGATT | 0.991
88 | GGTTTAGTTC | 0.996
89 | GGTTTCTAGC | 0.965
90 | GGTTTCTTAA | 0.964
91 | GGTTTCTTAC | 1.05
92 | GGTTTGCACA | 1.02
93 | GGTTTGGAAA | 0.924
94 | GGTTTTGAAC | 1.03
95 | GGTTTTGGTC | 1.01
96 | GGTTTTGTCC | 1.01
97 | GTAAAAAAAA | 0.969
98 | GTAAAATACT | 1.03
99 | GTAAAATGT | 0.923
100 | GTAAACATTT | 1.02
101 | GTAAAGGAAC | 1.02

— the supplement of paper PMC10126150
